The list shows a part of the results.
Key:
Experiment in all cases: glycan array binding signal (z-score within array); higher = stronger binding
Conditions in all cases: glycan notation: IUPAC condensed, linker removed
Fuc(a1-2)Gal = molecular target: Fuc(a1-2)Gal
Summary of the method: (§1)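 The binding signal is a Z-score computed within each array and averaged over linkers. Arrays of the same protein sequence at different concentrations or buffers were also averaged together. Data originate from 3228 arrays in the Consortium for Functional Glycomics database, kept only where the protein sequence was available.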

Fuc(a1-2)Gal(b1-3)GalNAc = molecular target: Fuc(a1-2)Gal(b1-3)GalNAc
Summary of the method: as §1

[1] = molecular target: Fuc(a1-2)Gal(b1-3)GalNAc(b1-3)Gal
Summary of the method: as §1

[2] = molecular target: Fuc(a1-2)Gal(b1-3)GalNAc(b1-3)Gal(a1-4)Gal(b1-4)Glc
Summary of the method: as §1

[3] = molecular target: Fuc(a1-2)Gal(b1-3)GalNAc(b1-4)[Neu5Ac(a2-3)]Gal(b1-4)Glc
Summary of the method: as §1

Fuc(a1-2)Gal(b1-3)GlcNAc = molecular target: Fuc(a1-2)Gal(b1-3)GlcNAc
Summary of the method: as §1

[4] = molecular target: Fuc(a1-2)Gal(b1-3)GlcNAc(b1-3)Gal(b1-4)Glc
Summary of the method: as §1

[5] = molecular target: Fuc(a1-2)Gal(b1-3)[Fuc(a1-4)]GlcNAc
Summary of the method: as §1

Fuc(a1-2)Gal(b1-4)Glc = molecular target: Fuc(a1-2)Gal(b1-4)Glc
Summary of the method: as §1

Fuc(a1-2)Gal(b1-4)Glc6S = molecular target: Fuc(a1-2)Gal(b1-4)Glc6S
Summary of the method: as §1

Fuc(a1-2)Gal(b1-4)GlcNAc = molecular target: Fuc(a1-2)Gal(b1-4)GlcNAc
Summary of the method: as §1

[6] = molecular target: Fuc(a1-2)Gal(b1-4)GlcNAc(b1-3)Gal(b1-4)GlcNAc
Summary of the method: as §1

[7] = molecular target: Fuc(a1-2)Gal(b1-4)GlcNAc(b1-3)Gal(b1-4)GlcNAc(b1-3)Gal(b1-4)GlcNAc
Summary of the method: as §1

[8] = molecular target: Fuc(a1-2)Gal(b1-4)GlcNAc6S
Summary of the method: as §1

[9] = molecular target: Fuc(a1-2)Gal(b1-4)[Fuc(a1-3)]GlcNAc
Summary of the method: as §1

[10] = molecular target: Fuc(a1-2)Gal(b1-4)[Fuc(a1-3)]GlcNAc(b1-3)Gal(b1-4)[Fuc(a1-3)]GlcNAc
Summary of the method: as §1

[11] = molecular target: Fuc(a1-2)Gal(b1-4)[Fuc(a1-3)]GlcNAc(b1-3)Gal(b1-4)[Fuc(a1-3)]GlcNAc(b1-3)Gal(b1-4)[Fuc(a1-3)]GlcNAc
Summary of the method: as §1

Fuc(a1-2)Gal6S(b1-4)Glc = molecular target: Fuc(a1-2)Gal6S(b1-4)Glc
Summary of the method: as §1

[12] = molecular target: Fuc(a1-2)Gal6S(b1-4)Glc6S
Summary of the method: as §1

[13] = molecular target: Fuc(a1-2)Gal6S(b1-4)GlcNAc
Summary of the method: as §1

Fuc(a1-2)[Gal(a1-3)]Gal = molecular target: Fuc(a1-2)[Gal(a1-3)]Gal
Summary of the method: as §1

[14] = molecular target: Fuc(a1-2)[Gal(a1-3)]Gal(b1-3)GlcNAc
Summary of the method: as §1

[15] = molecular target: Fuc(a1-2)[Gal(a1-3)]Gal(b1-4)Glc
Summary of the method: as §1

[16] = molecular target: Fuc(a1-2)[Gal(a1-3)]Gal(b1-4)GlcNAc
Summary of the method: as §1

[17] = molecular target: Fuc(a1-2)[Gal(a1-3)]Gal(b1-4)[Fuc(a1-3)]GlcNAc
Summary of the method: as §1

[18] = molecular target: Fuc(a1-2)[Gal(a1-4)]Gal(b1-4)GlcNAc
Summary of the method: as §1

[19] = molecular target: Fuc(a1-2)[GalNAc(a1-3)]Gal
Summary of the method: as §1

[20] = molecular target: Fuc(a1-2)[GalNAc(a1-3)]Gal(b1-3)GlcNAc
Summary of the method: as §1

[21] = molecular target: Fuc(a1-2)[GalNAc(a1-3)]Gal(b1-4)Glc
Summary of the method: as §1

[22] = molecular target: Fuc(a1-2)[GalNAc(a1-3)]Gal(b1-4)GlcNAc
Summary of the method: as §1

B1: MIC1 (Toxoplasma gondii), O00834 (protein)
chain: MGQALFLTVLLPVLFGVGPEAYGEASHSHSPASGRYIQQMLDQRCQEIAAELCQSGLRKMCVPSSRIVARNAVGITHQNTLQWRCFDTASLLESNQENNGVNCVDDCGHTIPCPGGVHRQNSNHATRHEILSKLVEEGVQRFCSPYQASANKYCNDKFPGTIARRSKGFGNNVEVAWRCYEKASLLYSVYAECASNCGTTWYCPGGRRGTSTELDKRHYTEEEGIRQAIGSVDSPCSEVEVCLPKDENPPLCLDESGQISRTGGGPPSQPPEMQQPADRSDERGGGKEQSPGGEAQPDHPTKGGNIDLPEKSTSPEKTPKTEIHGDSTKATLEEGQQLTLTFISTKLDVAVGSCHSLVANFLDGFLKFQTGSNSAFDVVEVEEPAGPAVLTIGLGHKGRLAVVLDYTRLNAALGSAAYVVEDSGCSSSEEVSFQGVGSGATLVVTTLGESPTAVSA
With B1 as the binder, how does the “glycan array binding signal (z-score)” value (Fuc(a1-2)Gal) read?
Its value is 0.021.

And the “glycan array binding signal (z-score)” value (Fuc(a1-2)Gal(b1-3)GalNAc)?
Its value is -0.262.

And the “glycan array binding signal (z-score)” value [1]?
Its value is -0.131.

And the “glycan array binding signal (z-score)” value [2]?
Its value is -0.343.

What about the “glycan array binding signal (z-score)” value [3] of the same binder?
Its value is -0.232.

And the “glycan array binding signal (z-score)” value (Fuc(a1-2)Gal(b1-3)GlcNAc)?
The value was -0.21.

What about the “glycan array binding signal (z-score)” value [4] of the same binder?
The value was -0.18.

And the “glycan array binding signal (z-score)” value [5]?
The value was -0.128.

What about the “glycan array binding signal (z-score)” value (Fuc(a1-2)Gal(b1-4)Glc) of the same binder?
The value was 0.115.

What about the “glycan array binding signal (z-score)” value (Fuc(a1-2)Gal(b1-4)Glc6S) of the same binder?
Its value is -0.003.

What about the “glycan array binding signal (z-score)” value (Fuc(a1-2)Gal(b1-4)GlcNAc) of the same binder?
Its value is -0.153.

What about the “glycan array binding signal (z-score)” value [6] of the same binder?
The value was -0.354.

And the “glycan array binding signal (z-score)” value [7]?
The value was -0.17.

What about the “glycan array binding signal (z-score)” value [8] of the same binder?
The value was -0.252.

And the “glycan array binding signal (z-score)” value [9]?
Its value is -0.213.

And the “glycan array binding signal (z-score)” value [10]?
Its value is -0.138.

What about the “glycan array binding signal (z-score)” value [11] of the same binder?
The value was -0.073.

What about the “glycan array binding signal (z-score)” value (Fuc(a1-2)Gal6S(b1-4)Glc) of the same binder?
Its value is -0.192.

What about the “glycan array binding signal (z-score)” value [12] of the same binder?
Its value is -0.305.

What about the “glycan array binding signal (z-score)” value [13] of the same binder?
The value was -0.293.

What about the “glycan array binding signal (z-score)” value (Fuc(a1-2)[Gal(a1-3)]Gal) of the same binder?
The value was -0.126.

What about the “glycan array binding signal (z-score)” value [14] of the same binder?
The value was -0.156.

What about the “glycan array binding signal (z-score)” value [15] of the same binder?
Its value is -0.15.

What about the “glycan array binding signal (z-score)” value [16] of the same binder?
Its value is -0.245.

What about the “glycan array binding signal (z-score)” value [17] of the same binder?
The value was -0.18.

And the “glycan array binding signal (z-score)” value [18]?
Its value is -0.163.

What about the “glycan array binding signal (z-score)” value [19] of the same binder?
Its value is 0.038.

And the “glycan array binding signal (z-score)” value [20]?
The value was -0.144.

And the “glycan array binding signal (z-score)” value [21]?
The value was -0.164.

And the “glycan array binding signal (z-score)” value [22]?
The value was -0.191.

— the supplement of paper PMC8728848
